Variants at the background level are over-represented here.
B1: TPR 5TU (parent)
chain: GGAUCUUCUCGAUCUAACAAAAAAGACAAAUCUGCCACAAAGCUUGAGAGCAUCUUCGGAUGCAGAGGCGGCAGCCUUCGGUGGCGCGAUAGCGCCAACGUUCUCAACUAUGACACGCAAAACGCGUGCUCCGUUGAAUGGAGUUUAUCAUG

Variants of: B1
Test: polymerase ribozyme fitness, log enrichment relative to wild type (log ratio); higher = more active; in vitro selection for triplet polymerase activity
Outline: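 Mutant libraries were PCR-built and transcribed for each subunit of a heterodimeric triplet polymerase ribozyme and selected for one round in triplicate at −7 °C, frozen, before gel excision of extended constructs and streptavidin-bead capture. Input and output libraries were Illumina-sequenced, keeping genotypes with ≥10 input reads and ≥1 read per output. Fitness is a logarithmic ratio of genotype to wild-type enrichment, in base 2, using inverse-variance-weighted replicate averages.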

Row | Variant | polymerase ribozyme fitness (log ratio)
1 | GGAUCUUCUCGAUCGAACAAAAAAGACAAAUCUGCCACAAAGCUUGAGAGCAUCUUCGGAUGCAGAGGCGGCAGCCUUCGGUGGCGCGAUAGCGCCAACGUUAUCAACUAUGACACGCAAAACGCGUGCUCCGUUGAAUGGAGUUUAUCAUG [U15G C103A] | -1.91
2 | GGAUCUUCUCGAUCGAACAAAAAAUACAAAUCUGCCACAAAGCUUGAGAGCAUCUUCGGAUGCAGAGGCGGCAGCCUUCGGUGGCGCGAUAGCGCCAACGUUCUCAACUAUGACACGCAAAACGCGUGCUCCGUUGAAUGGAGUUUAUCAUG [U15G G25U] | -3.22
3 | GGAUCUUCUCGAUCGAACAAAAAAGACAAAUCUACCCCAAAGCUUGAGAGCAUCUUCGGAUCCAGAGGCGGCAGCUUUCGGUGGCGCGAUAGCGCCAACGUUCUCAAUUAUGACACGCAAAACGAGUGCUCCGUUGAAUGGAGUUUAUCAUG [U15G G34A A37C G62C C76U C108U C125A] | ≤ -4.2
4 | GGAUCUUCUCGAUCGAACAAAAAAGACAAAUCUUCCACAAAGCUUGAGAGCAUCUUCGGAUGCAGAGGCGGCAGCCUUCGGUGGCGCGAUAGCGCCAACGUUCUCACCUAUGACUCGAAAAACGCGUGCUCCGCGGAAUGGAGUUUAUCGUG [U15G G34U A107C A115U C118A U134C U135G A150G] | ≤ -4.2
5 | GGAUCUUCUCGAUCGAACAAAAAAGACAAAUCUGCCACAAAACUUGAGAGCAUCUUCGGAUGCAGAGGCGGCAGACUUCGGUUGCGCGAUAGCGCCAACGUUCUCAACUAUGACACGCAAAUCGCGUACUCCGUUGAAUGGAGUUUAUCAUG [U15G G42A C75A G83U A122U G128A] | ≤ -4.2
6 | GGAUCUUCUCGAUCGAACAAAAAAGACAAAUCUGCCACAAACUUUGAGAGAAUCUUCGGAUGCAGAGGCGGCAGCCUUCGGUGUCGCGAUAGCGCCAACGUUCUCAACUAUGACACGCAAAACGCGUGCUCCGUUGAAUAGAGUUUAUCAUG [U15G G42C C43U C51A G84U G140A] | ≤ -4.2
7 | GGAUCUUCUCGAUCGAACAAAAAAGACAAAUCUGCCACAAAGCUUCAGAGCAUCUUCGGAUGCAGAGGCGGCAGCCUUCGGUGGCGCGAUAGAGUCAACGUUCUCAACUAUGACACGCAAAACGCGUGCUCCGUUGAAUGGAGUUUAUCAUG [U15G G46C C93A C95U] | ≤ -4.2
8 | GGAUCUUCUCGAUCGAACAAAAAAGACAAAUCUGCCACAAAGCUUUAGAGCAUCUUCGGAUGCAAAGCCGGCAGCCUUCGGUGGUGCGAUAGCGCCAACGUUCUCAACUAUGACAGGCAAAACGCGUGCUCCGUUGAAUGGAGUUUAUCAUG [U15G G46U G65A G68C C85U C116G] | ≤ -4.2
9 | GGAUCUUCUCGAUCGAACAAAAAAGACAAAUCUGCCACAAAGCUUGAGAACAUCUUCGGAUGCAGAGGCGGCAGCCUUCGGUGGCGAGAUAGCGCCAACGUUCUCAACUAUGACAAGCAAUACGCGUGCUCCGUUGAAUGGAGUUUAUCAUG [U15G G50A C87A C116A A121U] | ≤ -4.2
10 | GGAUCUUCUCGAUCGAACAAAAAAGACAAAUCUGCCACAAAGCUUGAGAGCAUCUUCCGAUGCAGAGGCCGCAGCCUUCGGUGGCGCGAUUGCGCCAACGUUCUCAACUAUGACACGCAAAACGCGUGCUCCGUUGAAUGGAGUUUAUCAUG [U15G G58C G70C A91U] | ≤ -4.2
11 | GGAUCUUCUCGAUCGAACAAAAAAGACAAAUCUGCCACAAAGCUUGAGAGCAUCUUCGGAUGCAAAGGCGGCAGCGUUCGGCGGUGCGAUAACGCCAACGUUCUCAACUAUGACACGCAAAACGCGUGCUCCGUUGAAUGGAGUUUAUCAUG [U15G G65A C76G U82C C85U G92A] | ≤ -4.2
12 | GGAUCUUCUCGAUCGAACAAAAAAGACAAAUCUGCCACAAAGCUUGAGAGCAUCUUCGGAUGCAGAGACGGCAGCCUUCGGUGGUGCGAUAGCGCCAACGUUCAUAACUAUGACACGCAAAACGCGUGCUCCGUUGAAUGGAGUUUAUCAUG [U15G G68A C85U U104A C105U] | ≤ -4.2
13 | GGAUCUUCUCGAUCGAACAAAAAAGACAAAUCUGCCACAAAGCUUGAGAGCAUCUUCGGAUGCAGAGGCGGCAGCCUUCGGUGGCGCAAUAGCGCCAACGUUCUCAACUAUGACACGCAAAACGCGUGCUCCGUUGAAUGGAGUUUAUCAUG [U15G G88A] | -4.08
14 | GGAUCUUCUCGAUCGAACAAAAAAGACAAAUCUGCCACAAAGCUUGAGAGCAUCUUCGGAUGCAGAGGCGGCAGCCUUCGGUGGCGCGAUAGCCCUAACGUUCUCAACUAAGACACGCAAAACGCGUGCUCCGUUGAAUGGAGUUUAUCAUA [U15G G94C C96U U111A G152A] | ≤ -4.2
15 | GGAUCUUCUCGAUCGAACAAAAAAGACAAAUCUGCCACAAAGCUAGACAGCAUCUUCGGAAGCAGAGGCGGCAGCAUUCGGUGGCGCGUUAGUGCCCACGUUCUCAACUAUGACACGCAAAACGCGUGCUCCGUUGAAUGGAGUUUAUCAUG [U15G U45A G48C U61A C76A A89U C93U A97C] | ≤ -4.2
16 | GGAUCUUCUCGAUCGAACAAAAAAGACAAAUCUGCCACAAAGCUUGAGAGCAUCUGCGGAUGCAGAGGCGGCAGUCUUCGGUGGCGCGAUAGCGCCAACGUUCUCAACCAUGAGGCACAAAACGAGUGCUCCGUGGAAUGGAGUUUAUCAUG [U15G U56G C75U U109C C114G A115G G117A C125A U135G] | ≤ -4.2
17 | GGAUCUUCUCGAUCUCACGGAAAAGACAAAGCUGCCACAAAGCUUGACAGCAACUUCGGAUGCACAGGCGGCAGCCUUCGGUGGCUCGAUAGCGCCAACGUUCUCAACUAUGACACGCAAAACGCGUGCGCCGUUGAAUGGAGUUUAUCAUG [A16C A19G A20G U31G G48C U53A G65C G86U U130G] | ≤ -4.2
18 | GGAUCUUCUCGAUCUCACAUAAAUGACAAAUCUGCCACACAGCUUGAGAGCAUCUUCGGAUGCAGAGGCGGCAGCCUUAGGUGGCGCGAUAGCGCCAAGGUUCUCAACUAUGACACGCAAAACGCGUGCUCCGUUGAAUGGAGGUUAUCAUG [A16C A20U A24U A40C C79A C99G U144G] | ≤ -4.2
19 | GGAUCUUCUCGAUCUCACAAACAAGAAAAAUCUGACACAAAGCUUGAGAGCAUCAUCGGAUGCAGAGGCGGCAGCCUUCGGUGGCGCGAUAGCGGCAACGUUCUCAACUAUGACACGCAAAACGCGUGCUCCGUUGAAUGGAGUUUAUCAUG [A16C A22C C27A C35A U55A C95G] | ≤ -4.2

Reference: the RNAGym collection of RNA variant scans (doi:10.1073/pnas.2313332121)
